Test results published in the supplement of paper PMC10126150.
Sequences with one replicate were seen in a single cluster, so their values are uncertain.

system: ATP; assay: switch fluorescence ratio, 500 uM ATP over buffer (Cy3 cluster intensity, sum of 5 cycles each) (fold (ratio)); higher = stronger signal-on switching upon ATP binding; sequences stand for … in TCGTCGGCAGCGTCAGATGTGTATAAGAGACAGTTTTTTTTTTTTTTTTTTTTTTTTT…TC; conditions: aptamer strand: ATP DNA aptamer (quencher-CACCTGGGGGAGTATTGCGGAGGAAGG + anchor), 100 nM annealed; ATP concentration: 500 uM; one replicate
How it was run: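 Per cluster, summed Cy3 intensity from the target cycles was divided by that from the buffer cycles to give the fluorescence ratio, then averaged per switch-domain sequence. Clusters outside 100-1000 RFU were excluded. The Cy3-labelled switching-strand clusters, on a modified Illumina MiSeq flow-cell, were annealed to 100 nM quencher-labelled ATP aptamer and imaged in selection buffer, then after 15 min with 500 uM ATP at 22 °C, for five cycles with NaOH stripping and re-annealing between them.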
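Further: ATP exposure 15 min at 22 °C before imaging.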

| Sequence | switch fluorescence ratio |
| --- | --- |
| GGGAACTAAG | 0.992 |
| GGGAATACGC | 1.1 |
| GGGAATATGT | 0.971 |
| GGGAATTCGT | 1.01 |
| GGGACAACTC | 1.05 |
| GGGACACAAT | 1.02 |
| GGGACAGGAA | 0.984 |
| GGGACAGGAG | 1.04 |
| GGGACAGGGT | 1 |
| GGGACCTAGT | 1.03 |
| GGGACGCC | 0.972 |
| GGGACGCGAC | 1.18 |
| GGGACTCATA | 1.01 |
| GGGACTCGTA | 0.965 |
| GGGACTCTTT | 1 |
| GGGACTGCAC | 1.4 |
| GGGAGATGCT | 0.98 |
| GGGAGATTC | 1.04 |
| GGGAGCACTG | 1.82 |
| GGGAGCAGAC | 2.75 |
| GGGAGCAGT | 1.04 |
| GGGAGGATTG | 0.968 |
| GGGAGGCCTT | 1.02 |
| GGGAGTCCCT | 1.01 |
| GGGAGTTGCG | 1.03 |

| Sequence | switch fluorescence ratio |
| --- | --- |
| GGGATAACTT | 0.982 |
| GGGATACAGA | 1.05 |
| GGGATAGCGG | 0.948 |
| GGGATAGGAT | 0.987 |
| GGGATATCTC | 0.997 |
| GGGATCAACA | 0.99 |
| GGGATCTAAT | 0.991 |
| GGGATCTGCT | 1.01 |
| GGGATTAAT | 0.982 |
| GGGATTCGAT | 0.975 |
| GGGATTGCGT | 1.01 |
| GGGATTTCAG | 1.01 |
| GGGATTTGGA | 1.06 |
| GGGCAAATGC | 2.08 |
| GGGCAAG | 1.14 |
| GGGCAATACG | 1.81 |
| GGGCACAGAC | 1.1 |
| GGGCACGTTA | 1.05 |
| GGGCAGCATT | 1 |
| GGGCAGCGTA | 1.01 |
| GGGCATACAC | 1.14 |
| GGGCATGTAA | 0.966 |
| GGGCATTGAT | 1.02 |
| GGGCCCCGCG | 0.983 |
| GGGCCCTGCG | 0.971 |

| Sequence | switch fluorescence ratio |
| --- | --- |
| GGGCCGTCAT | 1.01 |
| GGGCCTAGGG | 0.956 |
| GGGCGAAACG | 1.02 |
| GGGCGAAAGG | 1.01 |
| GGGCGACATT | 0.984 |
| GGGCGAGGAT | 0.998 |
| GGGCGGAGAT | 0.996 |
| GGGCGTAGAC | 0.973 |
| GGGCGTGAAT | 0.975 |
| GGGCGTGGGG | 1.03 |
| GGGCTATTTC | 1.43 |
| GGGCTCGGTC | 1.05 |
| GGGCTCTAAT | 0.998 |
| GGGCTGCACA | 1 |
| GGGCTGGGAA | 0.952 |
| GGGCTTATCT | 0.966 |
| GGGGAAATCT | 1.02 |
| GGGGAAATGT | 0.952 |
| GGGGAAGCTG | 1.11 |
| GGGGACGCGG | 1.01 |
| GGGGACGGAA | 1.12 |
| GGGGACGGTC | 0.958 |
| GGGGAGAGCC | 0.989 |
| GGGGAGCGGT | 0.966 |
| GGGGAGTGTG | 1 |

| Sequence | switch fluorescence ratio |
| --- | --- |
| GGGGATCGTG | 0.994 |
| GGGGATTCTT | 1.02 |
| GGGGCAATTC | 3.84 |
| GGGGCATGTT | 1.01 |
| GGGGCCGATT | 1.01 |
| GGGGCCGCCA | 1.05 |
| GGGGCCGGCC | 0.971 |
| GGGGCGGATA | 1.01 |
| GGGGCGTGGA | 0.933 |
| GGGGCTCCTG | 1.02 |
| GGGGCTGTA | 1.07 |
| GGGGCTTG | 0.977 |
| GGGGGAACTC | 1.02 |
| GGGGGAGGA | 0.985 |
| GGGGGCT | 1.05 |
| GGGGGGGAA | 1.03 |
| GGGGGTCAT | 0.998 |
| GGGGTAATAA | 1.52 |
| GGGGTAGTAA | 0.986 |
| GGGGTCCCAC | 1.07 |
| GGGGTCTAGA | 0.993 |
| GGGGTCTCT | 1.02 |
| GGGGTGTGTA | 1.01 |
| GGGGTTACTC | 0.978 |
| GGGGTTAGTA | 1.03 |
